Reference: PubChem BioAssay AID1345083 (National Center for Advancing Translational Sciences (NCATS), 2018)
Out of some 94,000 compounds screened, about 6,200 (6.6%) were called active. The inconclusive results got no clear call from the source; some entries with a clear call stand among them for comparison. Calls follow the shape of the dose curve; as a rule, active = well fitted inhibition curve with a large enough effect; inconclusive = small, poorly fitted or top-dose-only effect; inactive = flat fitted curve, though single readings scatter. Potencies beside an inconclusive call are fits to weak or partial responses and may not hold up.

Assay: Cytotoxic Profiling in HEK 293 Cell Line of Diverse Libraries Using Quantitative High-Throughput Screening; also: nearly all actives have a fitted effect of over 60% in size
Settings: HEK 293 viability, ATP luminescence (CellTiter-Glo), 48-72 h; series mostly up to 115 µM
In short: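 qHTS cytotoxicity; HEK 293, 250 cells/well; compound pinned; 48 or 72 hr, 37 degree Celsius, 5% CO2, 95% humidity; CellTiter-Glo, 10 min RT; luminescence (ATP).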
Potency is read from the fitted curve at half-maximal effect; tags tell the direction and shape of the fitted curve.

SMILES | Potency
O=C(Nc1cccc(-c2cccc(Cl)c2)c1)C1CCN(Cc2cccc(O)c2)CC1 | inconclusive: 20 µM [inhibitor, full curve, poor fit]
O=C(c1cccc(C(F)(F)F)c1)N1CCC(c2n[nH]c(=O)n2Cc2ccc(F)cc2)CC1 | inactive
c1coc(-c2ccnc3nc(-c4cccs4)nn23)c1 | inactive
Cc1ccc(C2NC(=O)N(CC(=O)NC3CCCCC3)C3=C2C(=O)OC3)cc1 (stereo not drawn) | inconclusive: 22.4 µM [inhibitor, full curve]
COc1ccc(C2Cn3cnc(C(=O)N4CCC(C(=O)NCc5cccc(C)c5)CC4)c3CO2)cc1 (stereo not drawn) | inactive
CNC(=O)c1cc(C2CC2)nc2c1c(C1CCN(C(=O)c3ccc(F)cc3)CC1)nn2C | inconclusive: 89.1 µM [inhibitor, single point]
O=C(NCC1CCNC1)C1CCN(c2nc(-c3ccccc3)nc3c2CCC3)CC1 (stereo not drawn) | inconclusive: 79.4 µM [inhibitor, partial curve, poor fit]
COc1cc([C@@H]2c3cc4c(cc3[C@H](O)[C@@H](CO)[C@@H]2C(=O)NCC2CC2)OCO4)cc(OC)c1OC | inconclusive: 7.08 µM [inhibitor, full curve, poor fit]
CCOC(=O)C1CCN(C(=O)c2cc(-c3ccncc3)cn2Cc2ccccc2C)CC1 | inconclusive: 70.8 µM [inhibitor, partial curve, poor fit]
CCCc1noc(-c2cn(C3CCN(C(=O)c4cc(F)ccc4F)CC3)nn2)n1 | inconclusive: 39.8 µM [inhibitor, full curve, poor fit]
CCc1cccc(NC(=O)Cn2c(N(C)Cc3ccccc3)nc(C)cc2=O)c1 | inconclusive: 35.5 µM [inhibitor, partial curve]
COCCCNC(=O)c1cn2cc(-c3cccc(C#N)c3)sc2n1 | inconclusive: 79.4 µM [inhibitor, partial curve, poor fit]
Cc1nnc(-c2cc(N3CCN(c4ccccn4)CC3)ccn2)n1C(C)C | inconclusive: 112 µM [inhibitor, partial curve, poor fit]
CCN1Cc2cc(F)ccc2N(CC(O)COc2ccccc2)CCC1=O (stereo not drawn) | inconclusive: 89.1 µM [inhibitor, single point]
COc1ccc(C(=O)N2CCc3nc(C)nc(-c4ccc(Cl)cc4)c3CC2)cc1 | inconclusive: 89.1 µM [inhibitor, partial curve, poor fit]
CN(Cc1ccccc1)C(=O)C[C@@H]1c2nc(NC(=O)C3CCC3)sc2C[C@@H]2[C@](C)(CO)[C@H](O)CC[C@]21C | inconclusive: 50.1 µM [inhibitor, partial curve, poor fit]
COC(=O)CNC(=O)C1CN(c2ccc(OC)cc2)C(=O)N1 (stereo not drawn) | inactive
C[C@H]1CN(C(=O)c2nn(C)c3ccccc23)C[C@@H]1c1nc(-c2cccnc2)no1 | inconclusive: 89.1 µM [inhibitor, single point]
CCC(CC)NC(=O)CCC1CCN(C(=O)c2ccccc2)CC1 | inactive
CC1=C[C@@H](CNC(=O)c2cncnc2)[C@H](C(C)C)C[C@H]1CC(=O)N(C)Cc1ccccc1 | inconclusive: 100 µM [inhibitor, partial curve, poor fit]
CC(C)CN1C(=O)c2cccn2CC1C(=O)NC1CCCCCC1 (stereo not drawn) | inactive

SMILES | Potency
COc1ccc(CCN2CC(NCc3ccc4c(c3)OCCO4)CC2=O)cc1 (stereo not drawn) | inactive
COc1ccccc1C(=O)Nc1cccc(C2OC(=O)N(Cc3ccc(C)cc3)C2C(N)=O)c1 (stereo not drawn) | inconclusive: 79.4 µM [inhibitor, partial curve]
CC/C=C\CCc1c(-c2ccccc2)ncn1CCN1CCN(C)CC1 | inconclusive: 79.4 µM [inhibitor, partial curve, poor fit]
CC(C)c1nc2c(c(-c3ccc(Cl)cc3)n1)CCN(C(=O)c1ccccc1)CC2 | inconclusive: 89.1 µM [inhibitor, single point]
CSCCNC(=O)C1CCN(c2nccc(Nc3ccccc3F)n2)CC1 | inconclusive: 50.1 µM [inhibitor, partial curve, poor fit]
CC(C)(Oc1nn(CC2CC2)c2ccc(CN3CCCC3)cc12)C(=O)Nc1cccnc1 | inconclusive: 126 µM [inhibitor, single point]
CC1(C(=O)Nc2ccncc2)CCCc2cnc(Nc3ccccc3)nc21 (stereo not drawn) | inconclusive: 63.1 µM [inhibitor, full curve, poor fit]
Cn1ncc2c(C(=O)NC3CCOCC3)cc(-c3ccccc3C(F)(F)F)nc21 | inactive
Cc1ccc(C2Cn3nnc(-c4nc(-c5cccnc5)no4)c3CO2)c(C)c1 (stereo not drawn) | inconclusive: 39.8 µM [inhibitor, full curve, poor fit]
COc1ccccc1CCC(=O)N(C)C1CCc2nn(CC3CC3)c(=O)n2CC1 (stereo not drawn) | inconclusive: 89.1 µM [inhibitor, single point]
COc1ccc(-c2ccc3ncc(Nc4ccc(OC)c(OC)c4)n3n2)cn1 | inconclusive: 12.6 µM [inhibitor, full curve, poor fit]
COc1ccc(CN2CC(CNc3ccccc3)C3(C2)CN(c2ccccc2)C3)cc1O (stereo not drawn) | active: 39.8 µM
COCCC1(CO)CCCN(C(=O)c2ccc3c(c2)OCC(=O)N3)C1 (stereo not drawn) | inactive
O=C([C@@H]1Cc2nc[nH]c2CN1Cc1ccc(Cl)cc1)N1CCOCC1 | inconclusive: 100 µM [inhibitor, partial curve, poor fit]
CCOc1ccc(C(=O)NC2CCN(c3cnn(C)c(=O)c3)CC2)cc1 | inactive
Cc1ccc(C)c(Cn2c(-c3ccc(F)cc3)nc(C)c(CCO)c2=O)c1 | inconclusive: 50.1 µM [inhibitor, partial curve, poor fit]
CCOC(=O)[C@H]1C[C@]2(CCCCN(CCOC)C2=O)N(C(C)=O)[C@H]1c1ccco1 | active: 31.6 µM
O=C1c2c(nc(CNCc3cccc(Cl)c3)n2Cc2ccccc2)NCCN1Cc1ccccc1F | inconclusive: 50.1 µM [inhibitor, partial curve, poor fit]
Cc1ccc(C(=O)N[C@H]2CO[C@H]3[C@@H]2OC[C@@H]3n2cc(CN(C)Cc3ccccc3)nn2)cc1 | inconclusive: 89.1 µM [inhibitor, single point]
N#Cc1ccc(C(=O)N2CCCN(c3cc(-c4ccc(Cl)cc4)[nH]n3)CC2)cc1 | active: 28.2 µM
COc1ccc(-c2cc(N3CCCN(C(=O)c4cccc(Cl)c4)CC3)n[nH]2)cc1 | inconclusive: 56.2 µM [inhibitor, partial curve, poor fit]

SMILES | Potency
C[S+](=O)([O-])Nc1cccc(Nc2cnc3ccc(-c4cccc(CO)c4)nn23)c1 | inconclusive: 89.1 µM [inhibitor, partial curve]
CCc1noc(-c2cccn3c(CNC(=O)Cc4ccccc4C)nnc23)n1 | inactive
O=C(NCCN[S+](=O)([O-])c1cccs1)c1cccc(-c2ccsc2)c1 | inconclusive: 44.7 µM [inhibitor, partial curve, poor fit]
Cc1ccccc1NC(=O)Cn1c(-c2cccc(Cl)c2)nc(C)c(CCO)c1=O | inconclusive: 44.7 µM [inhibitor, partial curve]
CC(C)n1nc(OC(C)(C)C(=O)NCC2CCOCC2)c2cc(CN3CCOCC3)ccc21 | inactive
CNCC(=O)N1CCC2(CC1)CN(CCOc1ccccc1)C(=O)O2 | inactive
Cc1ccc(CNC2CN(C(=O)OC(C)(C)C)C2)nc1 | inactive
Cc1cc(C)cc(NC2=N[C@H]3[C@@H](O)[C@H](O)C[C@H](C(=O)NCc4cccs4)[C@H]3S2)c1 | inconclusive: 126 µM [inhibitor, single point]
CN1CCC(N[C@H]2C[C@@H](Cc3cc(CN(C)Cc4ccccc4)on3)C2(C)C)CC1 | active: 39.8 µM
CC(C)CCN1CCC2(CC1)COc1ccccc1NC2=O | inactive
O=C(c1c2c(nc3ccccc13)CCCC2)N1CCCC(c2nc(C3CCOCC3)no2)C1 (stereo not drawn) | inconclusive: 79.4 µM [inhibitor, single point]
CC(=O)N1CCN(c2cc(-c3noc([C@@H]4CCCN4Cc4ccc(C(F)(F)F)cc4)n3)ccn2)CC1 | active: 28.2 µM
Cn1ccnc1C(=O)N1CCCCCNC(=O)[C@H]2C[C@H](C(=O)N3CCc4ccccc4C3)C[C@H]21 | inconclusive: 79.4 µM [inhibitor, partial curve, poor fit]
CC(C)CCC(=O)N1CCC(OC2CCN(Cc3ccccc3)CC2)CC1 | inconclusive: 28.2 µM [inhibitor, single point]
COc1ccc(CNC(=O)CNC(=O)c2ccc(-c3cnc4ccccc4c3)cc2)cc1 | inconclusive: 39.8 µM [inhibitor, full curve, poor fit]
Cc1ccc(CNC(=O)N2CCCCCC2c2nc(-c3ccccc3)no2)cc1 (stereo not drawn) | inconclusive: 79.4 µM [inhibitor, partial curve]
COC1CCC12CCN(C(=O)Nc1ccccc1)CC2 (stereo not drawn) | inactive
COc1cccc(-c2ccc(CN3CCCC(NC(=O)Cc4ccccn4)C3)cc2)c1 (stereo not drawn) | active: 39.8 µM
COc1ccc(-c2cc(N3CCC(NC(=O)c4cc(C)cc(C)c4)C3)n[nH]2)cc1 (stereo not drawn) | inconclusive: 50.1 µM [inhibitor, partial curve, poor fit]
O=C1Nc2ccccc2CC12CCN(Cc1ccc(OC(F)(F)F)cc1)C2 (stereo not drawn) | active: 28.2 µM
O=C(NCCCc1ccccc1)C1CCN(c2cc(C(F)(F)F)ncn2)CC1 | inconclusive: 39.8 µM [inhibitor, full curve, poor fit]
